In ChEMBL document CHEMBL4888484, “Replenishing the malaria drug discovery pipeline: Screening and hit evaluation of the MMV Hit Generation Library 1 (HGL1) against asexual blood stage Plasmodium falciparum ,using a nano luciferase reporter read-out” (2022):
In all, about 150,000 compounds went through this assay and about 540 (0.36%) showed an effect of 50% or more. Some of the results follow.

system: Plasmodium falciparum; assay: Primary screen in NF54 nanoGlo assay, in single point, at 2uM, 72h; a lower Z score goes with more inhibition; assay type: functional, Erythrocyte; settings: timepoint 72 hour

Going from `COc1ccc(C(=O)N[C@@H]2CCC[C@@H]2C(=O)N2CCN(c3cccc(C)c3)CC2)cc1` to `COc1cccc(C(=O)N2CCN(C(=O)CCc3ccncc3)CC2)c1`, the “% Inhibition” value falls from -7% to -18%.

First: Cc1ccc(CN(C)C(=O)Nc2cc([C@@H]3CCCO3)nn2C)s1
Second: CC1(C)C[C@@H](c2cn(Cc3ccc(C(=O)O)s3)nn2)CCO1
The “% Inhibition” value of the first is lower: -12% for the first, -4% for the second.

Compared with `CN(C)c1ccc(CCc2ccnc3ccccc23)cc1`, `CCn1c([C@H]2CCN(C(=O)Cc3ccccc3OC)C2)nc2cccnc21` is lower in “% Inhibition” value: 2% for the first, -11% for the second.

Going from `FC(F)(F)C1CCN(Cc2nc(C3CCCC3)no2)CC1` to `c1cc(N2CCCO[C@@H](CN3CCCCC3)C2)ncn1`, the “% Inhibition” value falls from -4% to -7%.

First: O=C(NC1CCc2ccccc21)C1CCN(C(=O)c2ncn3c2COC(c2ccccc2)C3)CC1 (stereo unspecified)
Second: CCc1cccc(NC(=O)N2C[C@@H](F)C[C@H]2C(=O)N2CCc3ccccc3C2)c1
The “% Inhibition” value of the first is lower: -33% for the first, -8% for the second.

Going from `O=C(Nc1ccnn1C1CCN(Cc2cccc3nonc23)CC1)c1cccc(F)c1` to `O=C(Cn1cnc2cc3ccccc3cc2c1=O)Nc1cc(C(F)(F)F)ccc1N1CCOCC1`, the “% Inhibition” value falls from -4% to -9%.

First: CN=C(NCCOC)NCCc1cccc(F)c1
Second: CCCCNC(=O)Cc1noc(-c2ccccc2-n2cnnn2)n1
The “% Inhibition” value of the first is higher: -10% for the first, -19% for the second.

Going from `Cc1cc(NC(=O)N2CCC(OC3CCC3)CC2)cn2ccnc12` to `O=C(CN1CCN(c2cccc3[nH]cnc23)CC1)NC1CC1`, the “% Inhibition” value falls from -1% to -11%.

Compared with `CC(C)c1nccc(N2CC3C(C2)C3(C)C)n1` (stereo unspecified), `CC(C)[C@@H]1CN(Cc2nc(=O)[nH][nH]2)CCCO1` is lower in “% Inhibition” value: 2% for the first, -1% for the second.

Going from `Cc1cccc(-c2nn3c(N4CCN(c5ccccn5)CC4)cc(C)nc3c2C)c1` to `O=C1CC[C@H](N2CCN(c3ccccn3)CC2)CCN1Cc1cc2c(cc1Cl)OCO2`, the “% Inhibition” value falls from 5% to 1%.

Going from `Cn1nc2n(c1=O)CCN(C(=O)c1ccc3[nH]ccc3c1)CC2` to `O=C(c1ccc2c(c1)CCC2)N1CC(n2ccnn2)C1`, the “% Inhibition” value rises from -14% to -1%.

Going from `N#C[C@@H]1COCCN1C(=O)c1cccc(N2CCCC2=O)c1` to `O=C1NCC2(CCN(C(=O)c3csc4ccccc34)CC2)O1`, the “% Inhibition” value falls from 0% to -18%.

Compared with `Cc1cc(C)cc(CCC(=O)NC2(C#N)CCCCC2)c1`, `Cc1ccc(CC(=O)NC(C)(C)C#N)cc1Br` is lower in “% Inhibition” value: 1% for the first, -4% for the second.

`CC[C@H]1CCc2[nH]c(=O)c(C(=O)Nc3nccc4ccncc34)cc2C1` and `CCc1ccccc1NC(=O)Cn1c(C)nc2c(c1=O)CCCC2` are the same in “% Inhibition” value: -4% for the first, -4% for the second.

First: CCc1ccc(O)c(NC(=O)[C@H](C)N)c1
Second: COC1CCCC(CC(=O)Nc2cnccc2OC(C)(C)C)C1 (stereo unspecified)
The “% Inhibition” value of the first is lower: -7% for the first, 6% for the second.

First: Cc1cc(C(=O)N(C)CCN(C)C2CCCC2)cc(C)c1O
Second: COC[C@@H]1CCCN1C(=O)Cn1nc(C)n(-c2ccc3c(c2)OCO3)c1=O
The “% Inhibition” value of the first is lower: -3% for the first, 7% for the second.

Going from `NC(=O)C1CCCC1NS(=O)(=O)CCc1cccs1` (stereo unspecified) to `CS(=O)(=O)C[C@H](NCc1nnsc1Cl)c1ccccc1`, the “% Inhibition” value falls from -2% to -9%.

Compared with `Cc1cc(C)cc(-c2nn(CN(CCC#N)CCC#N)c(=S)o2)c1`, `CCCc1cc(-c2nc(-c3ccc(-n4nc(C)cc4N)cc3)no2)n(C)n1` is higher in “% Inhibition” value: -10% for the first, 71% for the second.

Going from `Cc1ccc(Nc2nc(N3CCCC3)nc3nccnc23)cc1C` to `Cc1ccc(O[C@H]2CCCN(C(=O)c3ncccn3)C2)nn1`, the “% Inhibition” value rises from -9% to -4%.

Going from `CCc1csc(Cn2cc(-c3ccc(F)c(OC)c3F)nn2)n1` to `COc1ccc(S(=O)(=O)N2CCC3(CCC(=O)N3Cc3c(C)noc3C)CC2)cc1`, the “% Inhibition” value falls from -13% to -15%.

First: O=C(C1CCCC(F)(F)C1)N1CCCC(OCC2CC2)C1 (stereo unspecified)
Second: Cc1ccc2nsnc2c1NS(=O)(=O)c1ccc(C2CCCCC2)cc1
The “% Inhibition” value of the first is lower: -5% for the first, 2% for the second.

`CCC(C)N(CC(=O)N(Cc1ccco1)CC1CCCO1)C(=O)Cc1ccccc1` (stereo unspecified) was tested, and the “% Inhibition” value was -7%.

Going from `COc1ccc(C(=O)N[C@@H]2CCC[C@@H]2C(=O)N2CCN(c3cccc(C)c3)CC2)cc1` to `COc1cccc(C(=O)N2CCN(C(=O)CCc3ccncc3)CC2)c1`, the Z score rises from 0.91 to 3.4.

Compared with `Cc1ccc(CN(C)C(=O)Nc2cc([C@@H]3CCCO3)nn2C)s1`, `CC1(C)C[C@@H](c2cn(Cc3ccc(C(=O)O)s3)nn2)CCO1` is lower in Z score: 1.19 for the first, 0.8 for the second.

Going from `CN(C)c1ccc(CCc2ccnc3ccccc23)cc1` to `CCn1c([C@H]2CCN(C(=O)Cc3ccccc3OC)C2)nc2cccnc21`, the Z score rises from -0.24 to 1.21.

First: FC(F)(F)C1CCN(Cc2nc(C3CCCC3)no2)CC1
Second: c1cc(N2CCCO[C@@H](CN3CCCCC3)C2)ncn1
The Z score of the first is lower: 0.33 for the first, 0.88 for the second.

First: O=C(NC1CCc2ccccc21)C1CCN(C(=O)c2ncn3c2COC(c2ccccc2)C3)CC1 (stereo unspecified)
Second: CCc1cccc(NC(=O)N2C[C@@H](F)C[C@H]2C(=O)N2CCc3ccccc3C2)c1
The Z score of the first is higher: 3.04 for the first, 1.3 for the second.

Going from `O=C(Nc1ccnn1C1CCN(Cc2cccc3nonc23)CC1)c1cccc(F)c1` to `O=C(Cn1cnc2cc3ccccc3cc2c1=O)Nc1cc(C(F)(F)F)ccc1N1CCOCC1`, the Z score rises from 0.6 to 1.

First: CN=C(NCCOC)NCCc1cccc(F)c1
Second: CCCCNC(=O)Cc1noc(-c2ccccc2-n2cnnn2)n1
The Z score of the first is lower: 1.52 for the first, 3.87 for the second.

First: Cc1cc(NC(=O)N2CCC(OC3CCC3)CC2)cn2ccnc12
Second: O=C(CN1CCN(c2cccc3[nH]cnc23)CC1)NC1CC1
The Z score of the first is lower: 0.14 for the first, 1.83 for the second.

Going from `CC(C)c1nccc(N2CC3C(C2)C3(C)C)n1` (stereo unspecified) to `CC(C)[C@@H]1CN(Cc2nc(=O)[nH][nH]2)CCCO1`, the Z score rises from -0.33 to 0.11.

Compared with `Cc1cccc(-c2nn3c(N4CCN(c5ccccn5)CC4)cc(C)nc3c2C)c1`, `O=C1CC[C@H](N2CCN(c3ccccn3)CC2)CCN1Cc1cc2c(cc1Cl)OCO2` is higher in Z score: -0.84 for the first, -0.11 for the second.

Going from `Cn1nc2n(c1=O)CCN(C(=O)c1ccc3[nH]ccc3c1)CC2` to `O=C(c1ccc2c(c1)CCC2)N1CC(n2ccnn2)C1`, the Z score falls from 1.78 to 0.08.

Going from `N#C[C@@H]1COCCN1C(=O)c1cccc(N2CCCC2=O)c1` to `O=C1NCC2(CCN(C(=O)c3csc4ccccc34)CC2)O1`, the Z score rises from -0.02 to 2.72.

First: Cc1cc(C)cc(CCC(=O)NC2(C#N)CCCCC2)c1
Second: Cc1ccc(CC(=O)NC(C)(C)C#N)cc1Br
The Z score of the first is lower: -0.25 for the first, 0.74 for the second.

First: CC[C@H]1CCc2[nH]c(=O)c(C(=O)Nc3nccc4ccncc34)cc2C1
Second: CCc1ccccc1NC(=O)Cn1c(C)nc2c(c1=O)CCCC2
The Z score of the first is higher: 0.55 for the first, 0.46 for the second.

Compared with `CCc1ccc(O)c(NC(=O)[C@H](C)N)c1`, `COC1CCCC(CC(=O)Nc2cnccc2OC(C)(C)C)C1` (stereo unspecified) is lower in Z score: 0.85 for the first, -0.67 for the second.

First: Cc1cc(C(=O)N(C)CCN(C)C2CCCC2)cc(C)c1O
Second: COC[C@@H]1CCCN1C(=O)Cn1nc(C)n(-c2ccc3c(c2)OCO3)c1=O
The Z score of the first is higher: 0.53 for the first, -1.34 for the second.

Compared with `NC(=O)C1CCCC1NS(=O)(=O)CCc1cccs1` (stereo unspecified), `CS(=O)(=O)C[C@H](NCc1nnsc1Cl)c1ccccc1` is higher in Z score: 0.36 for the first, 0.87 for the second.

First: Cc1cc(C)cc(-c2nn(CN(CCC#N)CCC#N)c(=S)o2)c1
Second: CCCc1cc(-c2nc(-c3ccc(-n4nc(C)cc4N)cc3)no2)n(C)n1
The Z score of the first is higher: 1.81 for the first, -14.18 for the second.

Compared with `Cc1ccc(Nc2nc(N3CCCC3)nc3nccnc23)cc1C`, `Cc1ccc(O[C@H]2CCCN(C(=O)c3ncccn3)C2)nn1` is lower in Z score: 1.03 for the first, 0.7 for the second.

First: CCc1csc(Cn2cc(-c3ccc(F)c(OC)c3F)nn2)n1
Second: COc1ccc(S(=O)(=O)N2CCC3(CCC(=O)N3Cc3c(C)noc3C)CC2)cc1
The Z score of the first is lower: 1.21 for the first, 2.21 for the second.

First: O=C(C1CCCC(F)(F)C1)N1CCCC(OCC2CC2)C1 (stereo unspecified)
Second: Cc1ccc2nsnc2c1NS(=O)(=O)c1ccc(C2CCCCC2)cc1
The Z score of the first is higher: 0.52 for the first, -0.31 for the second.

With `CCC(C)N(CC(=O)N(Cc1ccco1)CC1CCCO1)C(=O)Cc1ccccc1` (stereo unspecified) the Z score was 0.99.
